Some of the results follow.
Key:
[1] = tested on: HSkMC (human skeletal muscle cells); assay: cytotoxicity call (relative viability < 0.9); conditions: 10 µM
[2] = tested on: HepG2; assay: cytotoxicity call (relative viability < 0.9); conditions: 10 µM
[3] = tested on: S. aureus RN4220; assay: growth inhibition call (relative growth <= 0.2); conditions: 50 µM

Structure (SMILES) | cytotoxicity call [1] | cytotoxicity call [2] | growth inhibition call [3]
COc1ccc2c3c(n(c2c1)C)[C@H](CO)N(C[C@]13CCN(CC1)C(=O)CC1CC1)C(=O)CN1CCOCC1 | inactive | inactive | inactive
COc1ccc2c3c([nH]c2c1)[C@H](CO)N(CC1CCCC1)C[C@]13CCN(CC1)C(=O)Nc1cccc(c1)F | inactive | inactive | inactive
C=CCOC1=N[C@@H]2[C@@H](C(=O)N(C)C(=O)N2C)N1C | inactive | inactive | inactive
C[C@@H]1CN([C@@H](C)CO)C(=O)Cc2cc(NC(=O)Nc3ccc4c(c3)OCO4)ccc2O[C@H]1CN(C)C(=O)Nc1ccc(C(F)(F)F)cc1 | inactive | inactive | inactive
COCC#Cc1ccc([C@@H]2[C@H]3CN(C(=O)C4CCOCC4)CC(=O)N3[C@H]2CO)cc1 | inactive | inactive | inactive
Cc1noc(C)c1NC(=O)Nc1ccc2c(c1)C(=O)N([C@@H](C)CO)C[C@H](C)[C@H](CN(C)Cc1ccc3c(c1)OCO3)OCCCC[C@@H](C)O2 | inactive | inactive | inactive
Cc1ccc(S(=O)(=O)Nc2ccc3c(c2)C(=O)N([C@H](C)CO)C[C@H](C)[C@@H](CN(C)C(=O)CCC(F)(F)F)OCCCC[C@H](C)O3)cc1 | inactive | inactive | inactive
COc1ccc([C@@H]2CC(=O)c3c(O)cc(O[C@@H]4O[C@H](CO)[C@@H](O)[C@H](O)[C@H]4O[C@@H]4O[C@@H](C)[C@H](O)[C@@H](O)[C@H]4O)cc3O2)cc1O | inactive | inactive | inactive
C[C@H](CO)N1C[C@H](C)[C@H](CN(C)C(=O)Cc2ccncc2)Oc2cc(C#CC3CC3)ccc2S1(=O)=O | inactive | inactive | inactive
C[C@@H]1CN([C@@H](C)CO)C(=O)c2cc(C#Cc3ccncc3)cnc2O[C@H]1CN(C)C(=O)c1ccccc1F | inactive | inactive | inactive
COc1ccc(NC(=O)N(C)C[C@@H]2Oc3ncc(C#CC(C)(C)O)cc3C(=O)N([C@H](C)CO)C[C@@H]2C)cc1 | inactive | inactive | inactive
C[C@H]1CCCCO[C@H](CN(C)C(=O)c2ccccc2)[C@@H](C)CN([C@@H](C)CO)C(=O)c2cc(NC(=O)Nc3ccc(C(F)(F)F)cc3)ccc2O1 | inactive | inactive | inactive
C[C@H]1CCCCO[C@@H](CN(C)C(=O)Nc2ccc(C(F)(F)F)cc2)[C@@H](C)CN([C@@H](C)CO)C(=O)c2cc(NC(=O)c3ccncc3)ccc2O1 | inactive | inactive | inactive
COCC(=O)N1C[C@@H](C)[C@H](OC)CN(C)C(=O)c2cc(NC(=O)c3ccc(OC)cc3)ccc2OC[C@@H]1C | inactive | inactive | inactive
Cc1ccc(S(=O)(=O)N(C)C[C@@H]2OCCCC[C@H](C)Oc3ccc(NC(=O)Nc4ccccc4)cc3C(=O)N([C@@H](C)CO)C[C@H]2C)cc1 | inactive | inactive | inactive
CC(=O)NCC(=O)N1CCC2(CC1)C(=O)N(CC1CC1)CCN2C | inactive | inactive | inactive
O=C(NCCO)c1ccc(C(=O)NCCO)cc1 | inactive | inactive | inactive
C[C@@H]1CN([C@H](C)CO)C(=O)c2cccc(NS(=O)(=O)c3cn(C)cn3)c2O[C@H]1CN(C)CC1CCCCC1 | inactive | inactive | inactive
COc1ccc(S(=O)(=O)N(C)C[C@@H]2Oc3c(NC(=O)c4cnccn4)cccc3C(=O)N([C@@H](C)CO)C[C@@H]2C)cc1 | inactive | inactive | inactive
NCc1cnn(-c2ccc(F)cc2)c1 | inactive | inactive | inactive
Cc1noc(C)c1S(=O)(=O)Nc1ccc2c(c1)C(=O)N([C@@H](C)CO)C[C@@H](C)[C@H](CN(C)S(=O)(=O)c1cn(C)cn1)OCCCC[C@H](C)O2 | inactive | inactive | inactive
C[C@@H]1CN([C@H](C)CO)C(=O)Cc2cc(NC(=O)Nc3ccc4c(c3)OCO4)ccc2O[C@H]1CN(C)S(C)(=O)=O | inactive | inactive | inactive
C[C@@H]1CCCCO[C@@H](CN(C)CC2CCCCC2)[C@@H](C)CN([C@H](C)CO)C(=O)c2cc(NC(=O)Nc3ccc(C(F)(F)F)cc3)ccc2O1 | active | active | inactive
C[C@H]1CN([C@@H](C)CO)C(=O)c2cccc(NC(=O)Nc3cccc4ccccc34)c2O[C@@H]1CN(C)C(=O)Nc1ccccc1 | active | inactive | inactive
O=C(C[C@@H]1CC[C@@H](NS(=O)(=O)c2ccc(F)cc2)[C@@H](CO)O1)NCc1ccc(Cl)c(Cl)c1 | inactive | inactive | inactive
CC(C)NC(=O)Nc1ccc2c(c1)C(=O)N([C@H](C)CO)C[C@@H](C)[C@H](CN(C)Cc1ccc(Cl)c(Cl)c1)OCCCC[C@@H](C)O2 | inactive | active | inactive
C[C@@H]1CN([C@H](C)CO)C(=O)c2cccc(NS(=O)(=O)c3cn(C)cn3)c2O[C@@H]1CN(C)S(=O)(=O)c1ccccc1 | inactive | inactive | inactive
CCCC#Cc1ccc2c(c1)O[C@@H](CN(C)S(=O)(=O)c1cccc(F)c1)[C@H](C)CN([C@H](C)CO)S2(=O)=O | inactive | inactive | inactive

Source: the antibiotic and cytotoxicity screens of Wong et al. (2023)
